Data: PubChem BioAssay AID1468 (National Center for Advancing Translational Sciences (NCATS), 2008)
The campaign covered roughly 280,000 compounds. About 1,100 (0.39%) were called active. Inconclusive results, whose numbers are uncertain, are shown with a selection of clear calls. Calls come from the whole dose curve; as a rule, active = well fitted inhibition curve with a large enough effect; inconclusive = small, poorly fitted or top-dose-only effect, or effect the other way; inactive = flat fitted curve, though single readings scatter. Potencies of inconclusive entries are left out as doubtful fits.

Target: Microtubule-associated protein tau (Homo sapiens) (UniProt P10636)
Test: qHTS for Inhibitors of Tau Fibril Formation, Fluorescence Polarization; note: nearly all actives have a fitted effect of over 55% in size
Conditions: K18 P301L tau heparin fibrillization, Alexa594 FP, 6 h; series mostly up to 57.7 µM
Outline: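 Compound effects on tau fibrillization are measured by Alexa 594 fluorescence polarization (ex 555, em 632 nm). K18 P301L tau is used at 15 uM with 0.24 uM labeled tracer, and 20 uM heparin induces aggregation over 6 hr at 37 C.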
Potency is the fitted concentration of half-maximal effect; tags give direction and shape of the fitted curve.

Chain of UniProt P10636 (P10636 whole entry, looked up): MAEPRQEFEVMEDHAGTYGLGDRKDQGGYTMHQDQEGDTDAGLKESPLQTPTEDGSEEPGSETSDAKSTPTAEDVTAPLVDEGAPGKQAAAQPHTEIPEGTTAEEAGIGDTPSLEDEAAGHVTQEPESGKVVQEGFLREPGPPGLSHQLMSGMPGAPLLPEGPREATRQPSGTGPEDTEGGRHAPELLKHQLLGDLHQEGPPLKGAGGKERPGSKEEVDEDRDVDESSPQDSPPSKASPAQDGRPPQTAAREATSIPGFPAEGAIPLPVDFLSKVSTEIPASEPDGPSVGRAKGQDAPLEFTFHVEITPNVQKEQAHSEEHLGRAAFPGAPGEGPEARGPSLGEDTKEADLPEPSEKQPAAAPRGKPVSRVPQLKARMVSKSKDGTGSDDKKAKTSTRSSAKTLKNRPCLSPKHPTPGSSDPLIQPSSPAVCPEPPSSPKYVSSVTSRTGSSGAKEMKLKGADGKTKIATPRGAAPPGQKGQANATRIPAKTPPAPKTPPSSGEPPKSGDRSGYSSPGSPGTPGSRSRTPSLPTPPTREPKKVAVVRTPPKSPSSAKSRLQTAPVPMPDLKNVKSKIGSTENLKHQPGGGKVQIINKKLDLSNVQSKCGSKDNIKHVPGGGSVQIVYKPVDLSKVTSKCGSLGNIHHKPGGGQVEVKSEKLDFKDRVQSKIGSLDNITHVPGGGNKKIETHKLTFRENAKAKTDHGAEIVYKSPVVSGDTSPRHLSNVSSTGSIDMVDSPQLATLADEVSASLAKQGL

| Compound | Potency |
| --- | --- |
| O=C(NCc1cccc(Cl)c1)c1ccc(NC(=O)N2CCSc3ccccc32)cc1 | inconclusive [inhibitor, partial curve] |
| CCn1c(C(=O)NCc2ccccc2Cl)cc2sc(Cl)cc21 | inconclusive [inhibitor, single point] |
| Nc1nc(-c2ccc3c(c2)CCO3)cs1 | inconclusive [activator, full curve, poor fit] |
| Cc1nc(CCNC(=O)Cc2ccc(F)cc2)cs1 | inactive |
| CSc1n[nH]c(NC(=O)c2c(-c3c(Cl)cccc3Cl)noc2C)n1 | inconclusive [inhibitor, single point] |
| COC(=O)c1ccc(NC(=O)n2ncc3c(C)cccc32)cc1 | inactive |
| COc1ccc(C2/C=C\CN(C(=O)Nc3ccccc3-c3ccccc3)CC(=O)N2Cc2ccc(F)cc2)cc1 (centres undefined) | inactive |
| OC(COc1ccccc1)CSc1ncn[nH]1 (centres undefined) | inactive |
| C=C[C@H](C)[C@](C)(O)c1ccccc1 | inactive |
| CC1(C)N=C(SCc2ccc(Cl)cc2)c2ccccc2N1 | inactive |
| COc1ccccc1C(=O)NC(=S)NNC(=O)c1sc2ccccc2c1Cl | inconclusive [inhibitor, single point] |
| CCn1c2ccccc2c2cc(NC(=O)c3ccco3)ccc21 | inactive |
| C[C@@H]1NC(=O)c2cc([N+](=O)[O-])cc(I)c2NCC[C@@H](C(N)=O)NC(=O)[C@H](CC(N)=O)NC1=O | inactive |
| Cc1ccc(Cl)cc1NC(=O)CN1C=NS(=O)(=O)c2ccccc21 | inactive |
| Cc1c(-c2ccco2)[n+](=O)c2c(n1[O-])CCCCC2 | inconclusive [inhibitor, partial curve] |
| CO[C@]12C(COC(N)=O)C3=C(C(=O)C(C)=C(N)C3=O)N1CC1NC12 (some centres undefined) | inactive |
| CCc1nn(CC(=O)NCc2ccccc2)c(=O)c2cccn12 | inconclusive [inhibitor, partial curve, poor fit] |
| Cc1ccc(NC(=O)CNCc2ccccc2)cc1Br | inconclusive [inhibitor, single point] |
| COc1ccc(-c2c3c(nc4sc(C(=O)Nc5cccc(OC)c5)c(N)c24)CC(C)(C)CC3=O)cc1 | inconclusive [inhibitor, single point] |
| COc1ccc(C(=O)Nc2cc(OC)c(Cl)cc2Cl)cc1 | inconclusive [inhibitor, single point] |
| COc1ccc(Br)cc1C(=O)Nc1ccccc1N1CCN(C(=O)c2ccccc2)CC1 | inactive |
| Cc1cccc(-c2nc3c4ccccc4nc(N4CCN(c5cccc(Cl)c5)CC4)n3n2)c1 | inactive |
| NC(=O)Nn1c(CCC(=O)O)ccc1-c1ccc(Br)cc1 | inactive |
| COc1ccc(CCNC(=O)c2ccc(Cn3c(=O)c4cccn4c4cccnc43)cc2)cc1OC | inactive |
| O=C(O)c1cccc(S(=O)(=O)Nc2ccc([N+](=O)[O-])cc2O)c1 | inconclusive [inhibitor, single point] |

| Compound | Potency |
| --- | --- |
| CC1Cn2c(nnc2-c2ccccc2O)S1 (centres undefined) | inactive |
| Cc1ccc(NC(=O)CSc2nc3ccc(NC(=O)c4ccco4)cc3s2)cc1 | inconclusive [inhibitor, single point] |
| COC(=O)c1c(NC(=O)Cc2coc3cc(C)cc(C)c23)sc2c1CCC2 | inactive |
| O=C(/C=C/c1ccc(Br)o1)NC(c1ccccc1)c1ccccc1 | inactive |
| CC(=O)c1ccc(NC(=O)c2ccc(-c3nc(CSc4ccc(C)cc4)c(C)o3)cc2)cc1 | inconclusive [inhibitor, partial curve] |
| COc1cccc(C(=O)Nc2ccc(C3CC3(Cl)Cl)cc2)c1 (centres undefined) | inconclusive [inhibitor, single point] |
| CCOC(=O)c1ccc(N2C(=O)c3[nH]nc(-c4ccc(OC)cc4)c3C2c2cccc(O)c2)cc1 (centres undefined) | active: 15.8 µM |
| CCc1cccc(NC(=O)CSc2ncc3c(n2)-c2cc(Cl)ccc2N(C)S3(=O)=O)c1 | inconclusive [inhibitor, single point] |
| O=C(Nc1cccc(C(=O)OCc2cc(=O)n3c4c(sc3n2)CCCC4)c1)c1cccc(F)c1 | inconclusive [inhibitor, single point] |
| CSc1nc(Oc2ccc(F)cc2)c2ccccc2n1 | inconclusive [inhibitor, partial curve] |
| Nc1ccc(-c2nc3ccc([N+](=O)[O-])cc3[nH]2)cc1 | inactive |
| CCCC(=O)Nc1nc2ccc(NC(=O)c3c(F)c(F)c(OC)c(F)c3F)cc2s1 | inconclusive [inhibitor, full curve] |
| CCOc1ccc(NC(=O)CSc2oc(-c3ccco3)nc2S(=O)(=O)c2ccc(C)cc2)cc1 | inconclusive [inhibitor, partial curve] |
| N#CC1=C(Nc2ccccc2Cl)SC(c2ccccc2O)NC1=O (centres undefined) | active: 31.6 µM |
| Cn1nc(-c2ccccc2)cc1NC(=O)Nc1ccccc1F | inconclusive [inhibitor, single point] |
| CCCOc1ccc(/C=C/C(=O)Nc2sc(C)c(C)c2C(=O)OCC)cc1OC | inconclusive [inhibitor, partial curve, poor fit] |
| Cc1sc2ncnc(NCC(C)(C)N3CCOCC3)c2c1C | inactive |
| CCOC(=O)c1c(C)[nH]c(C)c1C(=O)COC(=O)/C=C/c1cccc(C(F)(F)F)c1 | inconclusive [inhibitor, partial curve] |
| CCOc1ccc(S(=O)(=O)NCCc2csc(-c3ccc(Cl)cc3)n2)cc1 | inactive |
| Cc1ccc(S(=O)(=O)NCCc2ccc(S(N)(=O)=O)cc2)cc1 | inactive |
| CCCC(=O)Nc1ccc2c(c1)nc(CN1CCN(C(=O)OCC)CC1)n2C(C)C | inactive |
| CC(=O)OCC1=C(C(=O)O)N2C(=O)C(NC(=O)C(C)Cn3nc(C)c(Cl)c3C)C2SC1 (centres undefined) | inconclusive [inhibitor, single point] |
| CCN(CC)c1nn2c(=O)c(C(=O)NCCc3ccc(C)cc3)cnc2s1 | inactive |
| Cc1nc2sc(C(=O)N(C)Cc3ccccc3)c(NC(=O)c3ccccc3)c2c(C)c1Cl | inactive |
| N#Cc1cccc(-c2nc(Nc3ccccc3)c3ccccc3n2)c1 | inconclusive [inhibitor, full curve] |

| Compound | Potency |
| --- | --- |
| Cc1ccc(/C=N/NC(=O)c2nnn(-c3nonc3N)c2CSc2ccc(Cl)cc2)cc1 | inconclusive [inhibitor, full curve, poor fit] |
| Cc1ccc(OC(=S)Nc2ccc(O)cc2)cc1 | inconclusive [inhibitor, single point] |
| O=C1C2CCC(C2)[C@@H]2CCCCN12 (some centres undefined) | inactive |
| CCOC(=O)C1CCN(S(=O)(=O)c2cc(-c3onc(C)c3C)ccc2C)CC1 | inactive |
| C=CCNC(=O)c1ccc(-c2nc(-c3ccc(Cl)c(Cl)c3)cs2)cc1 | inconclusive [inhibitor, partial curve] |
| CCOc1ccc2c(c1)c1nnc(SCC3CCCO3)nc1n2C (centres undefined) | inactive |
| O=S(=O)(Nc1ccc(-c2ccc(N3CCCCC3)nn2)cc1)c1ccc(OC(F)(F)F)cc1 | inconclusive [inhibitor, single point] |
| CC(C)(C)c1ccc(/C=C/C(=O)Nc2ccncc2)cc1 | inconclusive [inhibitor, single point] |
| COc1ccc2c(c1)n([O-])c1c([n+]2=O)CCC1 | inactive |
| CC(C)N1CCN(Cc2ccc3c(c2)Cc2ccccc2-3)CC1CCO (centres undefined) | inactive |
| COc1ccc(/C=N/NC(=O)c2ccc(O)cc2)cc1CN1CCCc2ccccc21 | inconclusive [inhibitor, single point] |
| CCn1ccc(C(=O)NC2=NCCS2)n1 | inconclusive [inhibitor, single point] |
| CCOC(=O)c1ccc(N2C(=O)CC(N(Cc3ccc4c(c3)OCO4)C(=O)Nc3ccccc3)C2=O)cc1 (centres undefined) | inconclusive [inhibitor, partial curve] |
| O=[N+]([O-])c1ccc2[nH]c(O)c(N=NC(=S)NCC3CCCO3)c2c1 (centres undefined) | inconclusive [activator, full curve, poor fit] |
| CC(=O)OCC1=C(C(=O)O)N2C(=O)C(NC(=O)c3ccc(F)cc3)C2SC1 (centres undefined) | inconclusive [inhibitor, partial curve, poor fit] |
| COc1ccc(CNC(=O)c2cc3c(-c4ccc(Cl)cc4)nn(C)c3s2)cc1 | inconclusive [inhibitor, partial curve, poor fit] |
| COc1ccc(CNC(=O)Cn2nc(C)n3cccc3c2=O)cc1 | inconclusive [inhibitor, partial curve] |
| COc1ccc(Cl)cc1S(=O)(=O)N1CCN(C)CC1 | inactive |
| COc1ccc(-c2ccnc(-c3ccc(OCCCF)cc3)n2)cc1 | inconclusive [inhibitor, partial curve] |
| COCCCNC(=O)CCn1c(=O)c2ccccc2n(CC(=O)Nc2ccc(C)cc2C)c1=O | inconclusive [inhibitor, single point] |
| CN1CCN(CCCn2cnc3c(=O)oc4ccccc4c32)CC1 | inconclusive [inhibitor, single point] |
| O=C1CC(Sc2nnnn2-c2ccccc2)C(=O)N1c1cccc(Cl)c1 (centres undefined) | inactive |
| COc1cc2nc(CCc3ccccc3)oc(=O)c2cc1OC | inactive |
| Cc1cccc(NC(=O)c2nc[nH]c2C(=O)NCC(=O)OC(C)(C)C)c1 | inconclusive [inhibitor, single point] |
